From publication PMC4336329 (PLoS ONE, 2015)
Screen size: about 310,000 compounds; about 2,200 (0.71%) showed an effect of 50% or more. Effects have a minus sign here. Some of the results follow.

target: human ether-à-go-go-related gene (hERG) potassium channel (human, UniProt Q12809); assay: primary screen, population patch clamp on CHO cells stably expressing hERG
Sequence (Q12809 whole entry, looked up): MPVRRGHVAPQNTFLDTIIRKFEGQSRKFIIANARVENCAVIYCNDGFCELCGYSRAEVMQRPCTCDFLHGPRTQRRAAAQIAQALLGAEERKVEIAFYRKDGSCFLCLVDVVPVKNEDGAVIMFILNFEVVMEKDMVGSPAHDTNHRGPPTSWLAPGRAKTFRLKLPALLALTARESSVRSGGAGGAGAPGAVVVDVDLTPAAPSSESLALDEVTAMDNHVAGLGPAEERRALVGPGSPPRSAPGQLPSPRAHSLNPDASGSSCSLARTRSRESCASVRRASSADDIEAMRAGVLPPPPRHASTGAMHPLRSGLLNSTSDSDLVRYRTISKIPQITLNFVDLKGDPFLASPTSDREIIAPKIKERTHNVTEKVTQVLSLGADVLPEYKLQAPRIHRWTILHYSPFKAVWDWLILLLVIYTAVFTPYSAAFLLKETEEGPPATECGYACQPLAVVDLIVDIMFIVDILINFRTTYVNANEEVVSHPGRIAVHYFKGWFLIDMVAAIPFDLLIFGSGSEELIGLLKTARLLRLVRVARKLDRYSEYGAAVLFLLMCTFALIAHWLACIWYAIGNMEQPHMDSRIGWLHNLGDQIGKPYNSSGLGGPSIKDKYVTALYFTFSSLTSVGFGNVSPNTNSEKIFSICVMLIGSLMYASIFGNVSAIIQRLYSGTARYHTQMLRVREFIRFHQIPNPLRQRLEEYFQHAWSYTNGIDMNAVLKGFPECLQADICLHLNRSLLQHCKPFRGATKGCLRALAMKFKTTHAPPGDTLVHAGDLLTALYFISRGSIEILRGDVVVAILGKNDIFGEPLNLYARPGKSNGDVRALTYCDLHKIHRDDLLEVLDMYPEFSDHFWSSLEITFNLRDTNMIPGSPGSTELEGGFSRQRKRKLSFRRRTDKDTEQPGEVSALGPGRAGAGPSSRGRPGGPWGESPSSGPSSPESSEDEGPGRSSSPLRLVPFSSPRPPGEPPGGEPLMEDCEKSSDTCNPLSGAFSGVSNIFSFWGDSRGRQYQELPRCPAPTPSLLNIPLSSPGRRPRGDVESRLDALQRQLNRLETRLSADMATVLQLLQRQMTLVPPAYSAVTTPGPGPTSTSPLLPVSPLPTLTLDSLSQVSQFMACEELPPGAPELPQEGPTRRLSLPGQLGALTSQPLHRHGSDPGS

| SMILES | hERG current change (%, negative = inhibition) at 1uM |
| --- | --- |
| CC1CCCC(C)N1S(=O)(=O)c1ccc(S(=O)(=O)NCc2ccccc2)cc1 (centres unmarked) | 15.1% |
| COc1cc(-c2nnc3n2CCCCC3)cc(OC)c1OC | 10.8% |
| CC(C)(C)OC(=O)N[C@@H](Cc1ccccc1)C(=O)N1CCC(C(=O)O)CC1 | 5.11% |
| CC1CN=C(Nc2ccc(F)c(Cl)c2)S1 (centres unmarked) | 12.8% |
| O=C(OCCCOC(=O)c1cc[n+]([O-])cc1)c1cc[n+]([O-])cc1 | 10.5% |
| Cc1ccc(S(=O)(=O)N2CCOCC2)cc1NC(=O)COC(=O)c1ccccc1OCc1c(C)noc1C | -1.21% |
| Cn1c(Cn2c(=O)sc3ccccc32)nnc1SCc1ccccc1F | -25.7% |
| CCCCn1c(SCC(=O)NC2CCS(=O)(=O)C2)nc2cc(S(N)(=O)=O)ccc21 (centres unmarked) | 3.42% |
| Nc1cccc(-c2cc3ccccc3oc2=O)c1 | 13.8% |
| COCCN1C(=O)N(c2ccc(OC)cc2)C(=O)C1CC(=O)Nc1cccc(F)c1 (centres unmarked) | 11.1% |
| NNC(=O)c1ccccc1OCCOc1ccccc1 | 15.4% |
| COc1cccc(CN2CCNC(=O)C2CC(=O)N(C)Cc2nc(C)cs2)c1OC (centres unmarked) | 0.462% |
| CCC1OC(c2ccc([N+](=O)[O-])cc2)=Nc2ccccc21 (centres unmarked) | 8.82% |
| c1ccc(-c2ccc(C(c3ccccc3)n3ccnc3)cc2)cc1 (centres unmarked) | 12.8% |
| CCNC(=S)N(CCc1c(C)[nH]c2ccc(F)cc12)Cc1cccnc1 | -0.608% |
| S=C(Nc1ccccc1Oc1ccccc1)Nc1cccc(Cl)c1Cl | 5.31% |
| CN(C)C1(CNC(=O)C2CCN(S(=O)(=O)c3c(Cl)cccc3Cl)CC2)CCCCC1 | -33.9% |
| O=C(Nc1cccc(Cl)c1)NC1CC2CCC(C1)N2Cc1cccs1 (centres unmarked) | 2.2% |
| O=c1c2ccccc2[nH]c(=S)n1-c1ccc(Br)cc1 | 11.6% |

| SMILES | hERG current change (%, negative = inhibition) at 1uM |
| --- | --- |
| O=C(OCn1cncn1)c1ccc(Cl)cc1Cl | 6.33% |
| COc1ccccc1CNCC(=O)N1CC(=O)Nc2ccccc21.O=C(O)C(=O)O | 6.72% |
| COc1cccc(N(C(=O)Cn2nnc(-c3ccc(F)cc3)n2)C(C(=O)NCC2CCCO2)c2ccc(Cl)cc2)c1 (centres unmarked) | 14.1% |
| O=C(N[C@@H](Cc1c[nH]c2ccccc12)C(=O)O)c1ccccc1Cl | 1.95% |
| CCOC(=O)c1[nH]c2ccccc2c1NC(=S)Nc1ccccc1 | 13.2% |
| COc1nc(N(C)C)nc(N(OC)S(=O)(=O)c2ccccc2Cl)n1 | -3.17% |
| Cc1nnc(SCC(=O)Nc2ncc3c(n2)CC(C)(C)CC3=O)s1 | 15.8% |
| COc1ccc(CCNC(=S)N2CCC(Cc3ccccc3)CC2)cc1OC | -11.2% |
| Cc1c(C)[n+](=O)c(-c2ccc(F)cc2)c(C)n1[O-] | 4.01% |
| NC(=O)c1ccc(NC(=O)CCCN2C(=O)c3ccccc3C2=O)cc1 | 10.7% |
| Cc1nc(-c2ccccn2)sc1C(=O)Nc1ccc(F)cc1F | 14.5% |
| CC1(C)Oc2ccc(C(=O)Nc3ccccc3)cc2N(CC#N)C1=O | 15.3% |
| O=C(Cn1cc2c(n1)CCCC2)NCCCN1CCN(C2CCCCC2)CC1 | 10.9% |
| CN1C(=O)S/C(=C/c2ccc(OCc3cccc(C(=O)O)c3)cc2)C1=O | 13.6% |
| O=C(C[n+]1ccc(C(=O)N/N=C/c2ccc(OCc3ccccc3)cc2)cc1)c1ccccc1.[Br-] | 21.3% |
| COc1cc(CNCCSc2nnnn2C)cc(Br)c1OCc1ccccc1F.Cl | 4.34% |
| Cn1c(=O)c2c(nc(CN3CCOCC3)n2CC(O)CO)n(C)c1=O (centres unmarked) | -2.92% |
| CCn1c(CCNC(=O)c2cccs2)nnc1SCC(=O)NC1CCCCC1 | 0.54% |
| COc1ccc(/C=N/NC(=O)c2cccc(O)c2)cc1Cn1nc(C)c([N+](=O)[O-])c1C | 17.7% |

| SMILES | hERG current change (%, negative = inhibition) at 1uM |
| --- | --- |
| COC(=O)c1c(NC(=O)CN2CCC3(O)CCCCC3C2c2ccc(F)cc2)sc(C)c1C (centres unmarked) | 2.37% |
| Cc1ccc(CN(Cc2cc3cc(C)ccc3[nH]c2=O)C(=O)N2CCOCC2)cc1 | -4.51% |
| COc1ccc(C2(CCN)CC(C)N(C)CC2C)cc1.Cl (centres unmarked) | 4.32% |
| CCOC(=O)c1[nH]c(COC(=O)c2ccccc2NC(=O)c2ccco2)c(C(=O)OCC)c1C | 14.2% |
| COc1ccc(C2=NS(=O)(=O)N(C)C(C(=O)NC(C)c3ccccc3)=C2)cc1OC (centres unmarked) | 9.28% |
| NC(=S)NNC(=O)c1ccccc1 | -1.13% |
| O=C(CCNC(=O)c1ccc(Br)cc1)Nc1ncccc1O | 20.8% |
| CCOC(=O)Cc1csc(NC(=O)CSc2nnnn2-c2ccc(CC)cc2)n1 | 0.123% |
| Cc1cccc(-n2ncc3c2CCCC3NC(=O)CCN2CCCCO2)c1C (centres unmarked) | 13.7% |
| NC(=O)C1(N2CCCCC2)CCN(C(=O)CSc2nc(C(F)(F)F)cc(=O)[nH]2)CC1 | 3.56% |
| COc1ccc(CNC(=O)CCCn2c(SCC#N)nc3cc4c(cc3c2=O)OCO4)cc1 | 8.71% |
| Cc1cccc(C(=O)OCC(=O)NNC(=O)c2cccs2)c1O | 10.9% |
| Cc1oc(C(C)(C)C)c(CN2CCOCC2)c1C(=O)O.Cl | 21.9% |
| Cc1ccc(-c2nnc(SCC#N)n2N)cc1 | 18.3% |
| CCOC(=O)C1=C(C)Nc2ccccc2N=C1N | 7.46% |
| Cc1ccc(S(=O)(=O)Nc2ccsc2C#N)cc1 | 13.1% |
| COc1c(Cl)cc(C(=O)Nc2ccc(Cl)cn2)cc1Cl | 10.3% |
| CCCn1c(SCC(=O)NCc2ccco2)nnc1-c1ccncc1 | 15% |
